Here are results for 20 molecules from patent US11498899B2, “Nitrone herbicides” (FMC Corporation, priority 2016, dated 2022).

The test deals with sedge, umbrella (small-flower umbrella sedge, Cyperus difformis). The test is described as follows: Test B flooded paddy test, visual rating 0-100. To be noted: Flood, 250 g ai/ha, applied to paddy water, rated after 13 to 15 days.

The structures appear in SMILES notation.

As to `CC1=[N+]([O-])[C@H](C(=O)Nc2cccc(F)c2F)[C@@H](c2ccc(Cl)cc2)C1` [Compound 40, (2S,3R)-3-(4-chlorophenyl)-N-(2,3-difluorophenyl)-3,4-dihydro-5-methyl-2H-pyrrole-2-carboxamide 1-oxide], the “Sedge, Umbrella plant response rating (0 to 100 scale)” value (shortened to “Sedge, Umbrella plant response rating”) was found to be 0. As for `CC1=[N+]([O-])C(C(=O)Nc2cccc(F)c2F)C(c2ccc(C#N)cc2)C1` (racemic) [Compound 22], the figure is 0.

In the case of `CC1=[N+]([O-])[C@H](C(=O)Nc2cccc(F)c2F)[C@@H](c2ccc(C)cc2)C1` (relative stereo) [Compound 6, rel-(2S,3R)—N-(2,3-Difluorophenyl)-3,4-dihydro-5-methyl-3-(4-methylphenyl)-2H-pyrrole-2-carboxamide 1-oxide], the “Sedge, Umbrella plant response rating” value was 0. For `CC1=[N+]([O-])C(C(=O)Nc2ccccc2[S+](C)[O-])C(c2ccc(C(F)(F)F)cc2)C1` (racemic) [Compound 44] the value was 0; for `CC1=[N+]([O-])C(C(=O)Nc2cccc(F)n2)C(c2ccc(C(F)(F)F)cc2)C1` (racemic) [Compound 47], 0; for `CC1=[N+]([O-])[C@@H](C(=O)Nc2ccccc2F)[C@H](c2ccc(C(F)(F)F)cc2)C1` (relative stereo) [Compound 26, trans-N-(2-fluorophenyl)-3,4-dihydro-5-methyl-3-[4-(trifluoromethyl)phenyl]-2H-pyrrole-2-carboxamide 1-oxide], 0. As for `CC1=[N+]([O-])C(C(=O)Nc2cccc(F)c2F)C(c2ccc(F)c(Oc3ncc(F)cn3)c2)C1` (racemic) [Compound 52], the “Sedge, Umbrella plant response rating” value was determined as 0.

`CC1=[N+]([O-])[C@@H](C(=O)Nc2cccc(F)c2F)[C@H](c2cccc(Oc3ccc(F)cn3)c2)C1` [Compound 84]: the “Sedge, Umbrella plant response rating” value is 0. As for `CSc1ccccc1NC(=O)C1C(c2ccc(C(F)(F)F)cc2)CC(C)=[N+]1[O-]` (racemic) [Compound 29], the figure is 0. Take `CC1=[N+]([O-])C(C(=O)Nc2cccc(F)c2F)C(c2cccc(C(F)(F)F)c2C)C1` (racemic) [Compound 106]: the “Sedge, Umbrella plant response rating” value came out at 0. Consider `CC1=[N+]([O-])C(C(=O)Nc2cccc(F)c2F)C(c2ccc(F)c(Oc3ccc(Cl)nc3)c2)C1` (racemic) [Compound 51], for which the “Sedge, Umbrella plant response rating” value came to 0. In the case of `CC1=[N+]([O-])C(C(=O)Nc2cccc(F)c2F)C(c2cccc(C3OCCO3)c2)C1` (racemic) [Compound 105], the “Sedge, Umbrella plant response rating” value came to 0. For `COc1cccc(C2CC(C)=[N+]([O-])C2C(=O)Nc2cccc(F)c2F)n1` (racemic) [Compound 67] the value was 0.

`CC1=[N+]([O-])C(C(=O)Nc2cccc(F)c2F)C(c2cccc(F)c2)C1` (racemic) [Compound 8]: the “Sedge, Umbrella plant response rating” value is listed as 0. Turning to `CC1=[N+]([O-])C(C(=O)Nc2cccc(F)c2F)C(c2cccc(Br)n2)C1` (racemic) [Compound 65], the “Sedge, Umbrella plant response rating” value was 15. For `COc1cc(C2CC(C)=[N+]([O-])C2C(=O)Nc2cccc(F)c2F)ccc1C(F)(F)F` (centres unmarked) [Compound 100], the “Sedge, Umbrella plant response rating” value was determined as 0.

With `CC1=[N+]([O-])C(C(=O)Nc2cccc(F)c2F)C(c2cccc(Br)c2)C1` (racemic) [Compound 19], the “Sedge, Umbrella plant response rating” value was determined as 0. For `CC1=[N+]([O-])C(C(=O)Nc2cccc(F)c2F)C(c2cccc(C)c2)C1` (racemic) [Compound 15] the value was 0. As for `CC1=[N+]([O-])C(C(=O)Nc2cccc(F)c2F)C(c2ccccc2C)C1` (racemic) [Compound 11], the figure is 0; as for `CC1=[N+]([O-])C(C(=O)Nc2cccc(F)c2F)C(c2cccc(C)n2)C1` (racemic) [Compound 49], 0.
